From PubChem BioAssay AID1745847 (National Center for Advancing Translational Sciences (NCATS), 2022)
Hit rate of the full screen: of about 2,100 compounds, about 670 (32%) were called active. Inconclusive means that the source gave no clear call. Such entries were picked first, then a sample of the others. Calls follow the shape of the dose curve; as a rule, active = well fitted inhibition curve with a large enough effect; inconclusive = small, poorly fitted or top-dose-only effect; inactive = no such curve, though single readings can be large or run the other way. Potencies of inconclusive entries are doubtful fits and often do not repeat.
% is scaled to controls: 0 for no effect and ±100 for the full control effect; potency is read from the fitted curve at half-maximal effect; tags tell the direction and shape of the fitted curve.

Assay: CMV-Luciferase Counterscreen for Inhibitors of ATXN expression; also: nearly all actives have a fitted effect of over 55% in size
Details: HEK-293 CMV-luciferase reporter, luminescence, 24 h; series mostly up to 57.5 µM
For `Oc1c(C(Nc2nccs2)c2ccc(C(F)(F)F)cc2)ccc2cccnc12` (centres undefined), the Potency was inconclusive: 0.794 µM [inhibitor, full curve, poor fit].
For `COc1ccc2nc(C)cc(NCc3ccc(F)cc3)c2c1`, the Potency was inconclusive: 3.16 µM [inhibitor, single point].
For `COc1cccc(C(=O)N2N=C(c3ccccn3)CC2(O)C(F)(F)F)c1` (centres undefined), the Potency was inconclusive: 2.51 µM [inhibitor, partial curve, poor fit].
In the case of `CCOC(=O)N1CCN(c2ncnc3c2[nH]c2ccc(F)cc23)CC1`, the Potency was active: 3.55 µM.
For `OC(c1ccccc1)(c1nc(-c2cc3ccccc3o2)cs1)C(F)(F)F` (centres undefined), the Potency was “inactive”.
In the case of `COc1cccc(S(=O)(=O)NCc2ccc(C(=O)Nc3cccc(Cl)c3)cc2)c1`, the Potency was inconclusive: 6.31 µM [inhibitor, partial curve].
For `CCCOc1ccc(/C=C/C(=O)Nc2ccc([N+](=O)[O-])cc2)cc1`, the Potency was inconclusive: 0.631 µM [inhibitor, full curve].
With `COC(=O)[C@H]1C[C@H](OC(=O)NC2CC2)[C@@]2(O)CN(S(=O)(=O)c3ccc(C)cc3)CC2[C@H]1C(=O)OC` (some centres undefined) the activity change, negative = inhibition was inactive: 4.52% [at 11.4 µM].
In the case of `S=C(NCc1ccc(Cl)cc1Cl)NC1CCCCC1`, the Potency was inconclusive: 3.55 µM [inhibitor, single point].
In the case of `Cc1ccccc1C(=O)/C(C#N)=N/Nc1c(C)n(C)n(-c2ccccc2)c1=O`, the Potency was inconclusive: 3.16 µM [inhibitor, full curve, poor fit].
For `CCOc1ccc(-n2c(SCc3ccc([N+](=O)[O-])cc3)nnc2-c2ccccc2)cc1`, the Potency was inconclusive: 31.6 µM [inhibitor, single point].
In the case of `COc1cc2c(C(=O)N3CCOCC3)c(CSc3ccccc3)n(C)c2cc1Br`, the Potency was inconclusive: 31.6 µM [inhibitor, single point].
For `Cc1ccnc(NC(=O)CCCc2c[nH]c3ccccc23)c1`, the activity change, negative = inhibition was inactive: 484% [at 11.4 µM].
In the case of `O=C(Nc1ccc(Br)cc1)c1cccc(OC(=S)N2CCOCC2)c1`, the Potency was active: 2 µM.
With `O=C(CN1CC(c2ccccc2)CC1=O)N/N=C/c1cc(Br)ccc1O` (centres undefined) the Potency was active: 10 µM.
For `Cc1ccc(C)c(N2CCN(C(=O)CCCCCn3c(=S)[nH]c4ccc(N5CCOCC5)cc4c3=O)CC2)c1`, the Potency was active: 3.16 µM.
In the case of `O=C(c1ccco1)N1CCN(c2ncnc3c2[nH]c2ccc(Br)cc23)CC1`, the Potency was inconclusive: 17.8 µM [inhibitor, partial curve, poor fit].
In the case of `CC(=O)c1c(C)[nH]c(C(=O)Nc2nc(-c3ccc(-c4ccccc4)cc3)cs2)c1C`, the Potency was inconclusive: 2.82 µM [inhibitor, partial curve, poor fit].
For `O=C(CN1CCN(C(=O)c2ccc(-c3nc4ccccc4s3)o2)CC1)Nc1ccccc1Cl`, the Potency was inconclusive: 8.91 µM [inhibitor, single point].
For `c1nc(CCO[C@H]2CCCCO2)cc2cc3c(cc12)OCO3`, the Potency was active: 3.16 µM.
With `NC(c1csc(NC(=O)c2cccc(OC(F)(F)F)c2)n1)c1ccccc1Cl` (centres undefined) the Potency was inconclusive: 25.1 µM [inhibitor, single point].
For `COc1ccc(Oc2c(Cl)cnn(-c3ccc(C)cc3)c2=O)cc1`, the Potency was inconclusive: 35.5 µM [inhibitor, single point].
With `Cc1ccc(C(C)C)c(OCc2ccc(C(=O)N/N=C/c3ccc(O)c(O)c3)cc2)c1` the Potency was inconclusive: 2.82 µM [inhibitor, partial curve, poor fit].
With `COc1ccc(-c2c[n+]3c4n2CCCCC4=C(c2ccc(Br)cc2)C3)cc1` the Potency was inconclusive: 3.98 µM [inhibitor, single point].
With `CC(=O)Nc1ccc(Nc2c3ccccc3nc3ccccc23)cc1` the Potency was inconclusive: 2.51 µM [inhibitor, full curve, poor fit].
For `COc1cc(NS(=O)(=O)c2ccc(N/C=C(\C#N)c3nc4cc(Cl)ccc4o3)cc2)nc(OC)n1`, the Potency was inconclusive: 3.98 µM [inhibitor, partial curve, poor fit].
For `S=C(NC1CCCCC1)N1CCOCCOCCN(C(=S)NC2CCCCC2)CCOCCOCC1`, the Potency was inconclusive: 6.31 µM [inhibitor, single point].
In the case of `CO[C@@]12[C@@H]3N[C@@H]3CN1C1=C(C(=O)C(N)=C(C)C1=O)[C@@H]2COC(N)=O`, the activity change, negative = inhibition was inactive: 10.2% [at 11.4 µM].
For `Oc1c(C(c2ccccn2)N2CCCCC2)cc(Cl)c2cccnc12` (centres undefined), the Potency was “inactive”.
For `O=[N+]([O-])c1ccc(O)c(/C=N/Nc2ccccn2)c1`, the Potency was inconclusive: 0.447 µM [inhibitor, full curve, poor fit].
With `COc1ccc(/C=N/NC(=O)c2cccc([N+](=O)[O-])c2)c2ccccc12` the activity change, negative = inhibition was inactive: -1.17% [at 11.4 µM].
For `CCOC(=O)C(NS(=O)(=O)c1ccc(C)cc1)(C(F)(F)F)P(=O)(OCC(C)C)OCC(C)C` (centres undefined), the Potency was inconclusive: 6.31 µM [inhibitor, single point].
With `COc1ccc(C(CCNC(C)c2ccccc2)c2ccc(F)cc2)cc1` (centres undefined) the Potency was “inactive”.
With `CCN1CCN(c2ccc(Cl)cc2NC(=O)c2ccc(-n3nc(C)cc3C)cc2)CC1` the Potency was inconclusive: 20 µM [inhibitor, partial curve].
In the case of `Cn1nccc1C(=O)N1CCCC(C(=O)c2cccc3ccccc23)C1` (centres undefined), the Potency was “inactive”.
With `COc1cccc(NC(=S)/C(=C(\[O-])c2cc(C)n(-c3ccccc3F)c2C)[n+]2ccc(N(C)C)cc2)c1` the Potency was inconclusive: 15.8 µM [inhibitor, partial curve, poor fit].
In the case of `CCN(CC)S(=O)(=O)c1ccc(N/N=C/c2cc(OC)ccc2O)nc1`, the Potency was inconclusive: 0.355 µM [inhibitor, full curve, poor fit].
For `O=C(Nc1ccc(N2CCN(C(=O)c3cccs3)CC2)c(Cl)c1)c1cccnc1`, the Potency was inconclusive: 22.4 µM [inhibitor, partial curve, poor fit].
For `CN(C)C(CNC(=O)c1cccc(S(=O)(=O)N2CCN(c3ccc(F)cc3)CC2)c1)c1ccccc1` (centres undefined), the Potency was inconclusive: 10 µM [inhibitor, partial curve, poor fit].
